Measurements as given in the RNAGym collection of RNA variant scans (doi:10.7554/elife.90254).
The source gives no read counts; variants with many changes may rest on few reads.

B1: LINE1-mini (parent)
chain: GGCAGAGCUCAACACAGCGUGGCAAAGUGGCUGUGGCUAGACUGCC

Variants of: B1
Assay: self-cleavage, relative activity (ratio to wild type); higher = more cleavage; in vitro, sequencing; the parent is a self-cleaving ribozyme

Question: Which self-cleavage does the source give for GGCAGAGCUCAGCACAGCGUGGCGAAGUGGCUGUGGCUAGACUGAC [A12G A24G C45A] here?
Answer: Its self-cleavage is 0.04.

Question: Which self-cleavage does the source give for GGCAGAGCUCACCACAGCGUGGCAAAGUGGCUGUGGCUAUACUGAC [A12C G40U C45A] here?
Answer: The self-cleavage was 0.

Question: With GGCAGAGCUCAGCACAGCGUGGCAAAGUGGCUGUGGCUCGACUGUC [A12G A39C C45U] as the variant, how does the self-cleavage read?
Answer: The self-cleavage was 0.

Question: Which self-cleavage does the source give for GGCAGAGCUCAGCACCGCGUGGCAAAGUAGCUGUGGCUAGACUUCA [A12G A16C G29A G44U C46A] here?
Answer: The self-cleavage was 0.

Question: With GGCAGAGCUCACCACAGCGUGCCAAGGUGGCUGUGGCUAGACUGCC [A12C G22C A26G] as the variant, how does the self-cleavage read?
Answer: The self-cleavage was 0.05.

Question: For GGCAGAGCUCACCACAGCUUGGCAAAGCGGCGGUGGCUAGACUGCC [A12C G19U U28C U32G], which self-cleavage is on record?
Answer: The self-cleavage was 0.

Question: Which self-cleavage does the source give for GGCAGAGCUCACCACAGCGUGGCAAAGUGGCUGUGGCUAGACGGAC [A12C U43G C45A] here?
Answer: The self-cleavage was 0.01.

Question: Which self-cleavage does the source give for GGCAGAGCUCACCACAGCGUGGCAAAGUAGUUGUGGCUAGACUGCC [A12C G29A C31U] here?
Answer: Its self-cleavage is 0.02.

Question: Which self-cleavage does the source give for GGCAGAGCUCACCACAGCGUGGCAAAACGGCUGUGGCCAGACUGCC [A12C G27A U28C U38C] here?
Answer: Its self-cleavage is 0.

Question: Which self-cleavage does the source give for GGCAGAGCUCAGCACUGCGUGGCAAAGUGGCUGUGGCUAGGCUGCC [A12G A16U A41G] here?
Answer: Its self-cleavage is 0.07.

Question: For GGCAGAGCUCACCACAGCGUGGCAAAGUGGCUGUCGCUAGACUGAC [A12C G35C C45A], which self-cleavage is on record?
Answer: Its self-cleavage is 0.01.

Question: For GGCAGAGCUCACCACAGCGUGGCAAAGUCGCUGUGGCGAGACUGCC [A12C G29C U38G], which self-cleavage is on record?
Answer: Its self-cleavage is 0.01.

Question: Which self-cleavage does the source give for GGCAGAGCUCAGUACUGCGUGGCAAAGUGGCUGUGGCUAGACUGCC [A12G C13U A16U] here?
Answer: The self-cleavage was 0.02.

Question: With GGCAGAGCUCAGCCCAGGGUGGCAAAGUGGCUGUGGCUAGACUGCC [A12G A14C C18G] as the variant, how does the self-cleavage read?
Answer: Its self-cleavage is 0.01.

Question: Which self-cleavage does the source give for GGCAGAGCUCACCACAGCGUGGCAAAGCAGCGGUGGCUAAACUGCC [A12C U28C G29A U32G G40A] here?
Answer: Its self-cleavage is 0.

Question: For GGCAGAGCUCAGCAAAGCGUGGCAAAGUGGGUGUGGCUAGACUGCC [A12G C15A C31G], which self-cleavage is on record?
Answer: The self-cleavage was 0.02.

Question: With GGCAGAGCUCACCACAGCGUAGCAAAGUGGCUGUGGCUAGACGGCC [A12C G21A U43G] as the variant, how does the self-cleavage read?
Answer: The self-cleavage was 0.

Question: Which self-cleavage does the source give for GGCAGAGCUCAGCACGGCGUGGCAAAGUGGCUGUGGCUAGGCUUCC [A12G A16G A41G G44U] here?
Answer: Its self-cleavage is 0.07.

Question: With GGCAGAGCUCACCACAGCGGGGCAAAGUUGCUGGGGCUAGACUGCC [A12C U20G G29U U34G] as the variant, how does the self-cleavage read?
Answer: The self-cleavage was 0.02.

Question: For GGCAGAGCUCACCACAGCCUCGCAAAGUGGCUGUAGCUAGACUGCC [A12C G19C G21C G35A], which self-cleavage is on record?
Answer: Its self-cleavage is 0.1.

Question: For GGCAGAGCUCACCACAGCGUGUCAAAGUGGCUGCGGCUAGACUGCU [A12C G22U U34C C46U], which self-cleavage is on record?
Answer: Its self-cleavage is 0.

Question: Which self-cleavage does the source give for GGCAGAGCUCACCACAGCGGGGCUAAGUGGCUGAGGCUAGACUGCC [A12C U20G A24U U34A] here?
Answer: Its self-cleavage is 0.

Question: For GGCAGAGCUCAGCACAGCGUGGCAGAGUGCCUGUGGCUAGACUGCC [A12G A25G G30C], which self-cleavage is on record?
Answer: The self-cleavage was 0.03.

Question: With GGCAGAGCUCACCACAGCGUGCCAGAGUGGCUGUGGCUAGACUGCU [A12C G22C A25G C46U] as the variant, how does the self-cleavage read?
Answer: Its self-cleavage is 0.01.

Question: For GGCAGAGCUCAGGACAGCGUGGCAAAGUGGCUGUGGCUAGUCUGCC [A12G C13G A41U], which self-cleavage is on record?
Answer: Its self-cleavage is 0.08.

Question: Which self-cleavage does the source give for GGCAGAGCUCACCACAGCGCGACACAGUGGCUGUGGCGAGACUGCC [A12C U20C G22A A25C U38G] here?
Answer: Its self-cleavage is 0.02.

Question: With GGCAGAGCUCAGAACAGCGUGGCAAACUGGCUGUGGCUAGCCUGCC [A12G C13A G27C A41C] as the variant, how does the self-cleavage read?
Answer: The self-cleavage was 0.02.

Question: For GGCAGAGCUCACCACAGCGUGGCAAAGUGCCUGUUCCUAGAAUGCC [A12C G30C G35U G36C C42A], which self-cleavage is on record?
Answer: Its self-cleavage is 0.

Question: With GGCAGAGCUCACCACAGCUUGGCAAAGUGGCUGUGGCUAGACUGUC [A12C G19U C45U] as the variant, how does the self-cleavage read?
Answer: Its self-cleavage is 0.01.

Question: With GGCAGAGCUCAGCAAAGCGUGGCAAAGUGGAUGUGGCAAGACUGCC [A12G C15A C31A U38A] as the variant, how does the self-cleavage read?
Answer: Its self-cleavage is 0.01.

Question: For GGCAGAGCUCAGCCCAGCGUGGCAAAGUGGCUGUGGCUAGACUGCU [A12G A14C C46U], which self-cleavage is on record?
Answer: Its self-cleavage is 0.01.

Question: With GGCAGAGCUCACCACAGCGUGGCAAAGUGGCGGUGCCUAUACUGCC [A12C U32G G36C G40U] as the variant, how does the self-cleavage read?
Answer: Its self-cleavage is 0.02.

Question: Which self-cleavage does the source give for GGCAGAGCUCAGUACAGCGUGGCAAAGUGGCUUUGGCUAGACUGCC [A12G C13U G33U] here?
Answer: Its self-cleavage is 0.03.

Question: Which self-cleavage does the source give for GGCAGAGCUCAGCACCGCGUGGUAAAGUGGCUGUGGCUAGACUGCC [A12G A16C C23U] here?
Answer: The self-cleavage was 0.01.

Question: With GGCAGAGCUCAGUACAGCGUGGCAAUCUGGCUGUGGCUAGACUGCC [A12G C13U A26U G27C] as the variant, how does the self-cleavage read?
Answer: Its self-cleavage is 0.05.

Question: Which self-cleavage does the source give for GGCAGAGCUCAGUACAGCCUUGCAAAGUGGCUGUGGCUAGACUGCC [A12G C13U G19C G21U] here?
Answer: The self-cleavage was 0.02.

Question: For GGCAGAGCUCACCACAGCGUGGCAAAGUGGCUGGGGCUUGACUGUC [A12C U34G A39U C45U], which self-cleavage is on record?
Answer: The self-cleavage was 0.

Question: Which self-cleavage does the source give for GGCAGAGCUCAGCACCGCGUGGCAAAGUGGCUGUGGCUUGACUGCC [A12G A16C A39U] here?
Answer: Its self-cleavage is 0.02.

Question: Which self-cleavage does the source give for GGCAGAGCUCAGCACGGCCUGGCAAAGAGGCUGUGGCUAGACUGCC [A12G A16G G19C U28A] here?
Answer: The self-cleavage was 0.02.

Question: Which self-cleavage does the source give for GGCAGAGCUCACCACAGCGUGGCAAAGUGGCUGUGCCUAGAUUGCC [A12C G36C C42U] here?
Answer: The self-cleavage was 0.02.

Question: With GGCAGAGCUCAGUACAGCGUGGCCAAGUGGCUGUGGCUAGACUGCC [A12G C13U A24C] as the variant, how does the self-cleavage read?
Answer: The self-cleavage was 0.03.

Question: For GGCAGAGCUCACCACAGCGUGUCAAAGUGGCUGUGGCUAGACUGGC [A12C G22U C45G], which self-cleavage is on record?
Answer: The self-cleavage was 0.04.

Question: For GGCAGAGCUCAGCACAGCGUGGCCAAGUGGCUGCAGCUAGACUGCC [A12G A24C U34C G35A], which self-cleavage is on record?
Answer: The self-cleavage was 0.02.

Question: With GGCAGAGCUCACCACAGCGCGGCAAAGUGUCUGUGGCUAGAUUGCC [A12C U20C G30U C42U] as the variant, how does the self-cleavage read?
Answer: The self-cleavage was 0.

Question: With GGCAGAGCUCACCACAGCGGGGCAAAGUGGCUGUGGCUAGACUACC [A12C U20G G44A] as the variant, how does the self-cleavage read?
Answer: The self-cleavage was 0.03.

Question: With GGCAGAGCUCAGCACAGCGUGGCAACGUGGCUGUGGCCAGACCGCG [A12G A26C U38C U43C C46G] as the variant, how does the self-cleavage read?
Answer: The self-cleavage was 0.

Question: Which self-cleavage does the source give for GGCAGAGCUCACCACAGCGUGGCAAAGUGGCUGUGGCUAUACGUCC [A12C G40U U43G G44U] here?
Answer: The self-cleavage was 0.01.

Question: With GGCAGAGCUCACCACAGCGCGGCAAAGUGGCUGUGGCUAGACUGAC [A12C U20C C45A] as the variant, how does the self-cleavage read?
Answer: The self-cleavage was 0.01.

Question: For GGCAGAGCUCAGCACAGCGUGGCGAAGUGGCAGUGGCAAGACUGCC [A12G A24G U32A U38A], which self-cleavage is on record?
Answer: The self-cleavage was 0.04.

Question: Which self-cleavage does the source give for GGCAGAGCUCAGUACAUCGUGGCAAGAUGGCUGUGGCUAGACUGAC [A12G C13U G17U A26G G27A C45A] here?
Answer: The self-cleavage was 0.01.

Question: For GGCAGAGCUCACCACAGCGUUGCAAAGUGGCUGUGGUUAGACUGCC [A12C G21U C37U], which self-cleavage is on record?
Answer: Its self-cleavage is 0.01.

Question: Which self-cleavage does the source give for GGCAGAGCUCAGCAAAGCGUGGCAAAGUGGCUGUGACUAGACUGCC [A12G C15A G36A] here?
Answer: Its self-cleavage is 0.

Question: Which self-cleavage does the source give for GGCAGAGCUCAGCAAAGGGUGGCAAAGUGGCUGUGGCUAGACUGCC [A12G C15A C18G] here?
Answer: Its self-cleavage is 0.3.

Question: For GGCAGAGCUCAGCCCAGCGUGGCAAAGUGGCUGUGACUAGACUGUC [A12G A14C G36A C45U], which self-cleavage is on record?
Answer: The self-cleavage was 0.01.

Question: With GGCAGAGCUCAGCACAGCGUGGCAAGGUGGCCGUUGCUAGACUGCC [A12G A26G U32C G35U] as the variant, how does the self-cleavage read?
Answer: Its self-cleavage is 0.05.

Question: For GGCAGAGCUCACCACAGCGUGGCAAAGUGGCUAUGGCUAGAAUGCC [A12C G33A C42A], which self-cleavage is on record?
Answer: Its self-cleavage is 0.25.
